The subject of test [1] is c-MET amplified SNU5 cells. Kind of test: Cell growth-inhibition assay (CellTiter 96 Aqueous One Solution, MTS). The test is classed as cell-based. To be noted: Homo sapiens, SNU-5, 72 h, cytotoxic assay, drugs for 3 d.
The test system of test [2] is MET-amplified SNU5 cells. The following applies: FIG. 12.

For `Cc1[nH]c(/C=C2\C(=O)Nc3ccc(S(=O)(=O)Cc4c(Cl)cccc4Cl)cc32)c(C)c1C(=O)N1CCC[C@@H]1CN1CCCC1` [PHA665,752], it took 58 nM to reach half-maximal inhibition in test [1] (IC50).
For `CS(=O)(=O)CCNCc1ccc(-c2ccc3ncnc(Nc4ccc(OCc5cccc(F)c5)c(Cl)c4)c3c2)o1` [lapatinib], the concentration for half-maximal inhibition (IC50) in test [1] is more than 1000 nM. The HER2 activation result in test [2] is listed as “unable to do so”.

Values taken from patent US20170285044A1, “METHODS FOR PREDICTING AND IMPROVING THE SURVIVAL OF GASTRIC CANCER PATIENTS” (Pierian Holdings, Inc., priority 2011, published 2017).
